Whole data set: some 110,000 compounds, median “z-score” near -0.1, cut for the highest 2% near 2. This is one part of the list. Calls of active or inactive are those of the source.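 How the source made its calls: active means z-score in the third read window above 3 or below -3; inactive means the rest.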

The target in the assay is Metabotropic glutamate receptor 8 (Rattus norvegicus) (UniProt P70579). In words: mGluR8 Gi/Go-coupled signaling modulation – cell-based, rat, thallium flux, HTS, primary screen (AID 488969). To be noted: HEK293 rat mGluR8, GIRK (G protein-gated inwardly rectifying potassium channel) thallium flux, FluoZin2; at 10 µM; stronger effect = higher value; submaximal glutamate (EC20) added with thallium.
UniProt P70579, sequence (P70579 whole entry, looked up): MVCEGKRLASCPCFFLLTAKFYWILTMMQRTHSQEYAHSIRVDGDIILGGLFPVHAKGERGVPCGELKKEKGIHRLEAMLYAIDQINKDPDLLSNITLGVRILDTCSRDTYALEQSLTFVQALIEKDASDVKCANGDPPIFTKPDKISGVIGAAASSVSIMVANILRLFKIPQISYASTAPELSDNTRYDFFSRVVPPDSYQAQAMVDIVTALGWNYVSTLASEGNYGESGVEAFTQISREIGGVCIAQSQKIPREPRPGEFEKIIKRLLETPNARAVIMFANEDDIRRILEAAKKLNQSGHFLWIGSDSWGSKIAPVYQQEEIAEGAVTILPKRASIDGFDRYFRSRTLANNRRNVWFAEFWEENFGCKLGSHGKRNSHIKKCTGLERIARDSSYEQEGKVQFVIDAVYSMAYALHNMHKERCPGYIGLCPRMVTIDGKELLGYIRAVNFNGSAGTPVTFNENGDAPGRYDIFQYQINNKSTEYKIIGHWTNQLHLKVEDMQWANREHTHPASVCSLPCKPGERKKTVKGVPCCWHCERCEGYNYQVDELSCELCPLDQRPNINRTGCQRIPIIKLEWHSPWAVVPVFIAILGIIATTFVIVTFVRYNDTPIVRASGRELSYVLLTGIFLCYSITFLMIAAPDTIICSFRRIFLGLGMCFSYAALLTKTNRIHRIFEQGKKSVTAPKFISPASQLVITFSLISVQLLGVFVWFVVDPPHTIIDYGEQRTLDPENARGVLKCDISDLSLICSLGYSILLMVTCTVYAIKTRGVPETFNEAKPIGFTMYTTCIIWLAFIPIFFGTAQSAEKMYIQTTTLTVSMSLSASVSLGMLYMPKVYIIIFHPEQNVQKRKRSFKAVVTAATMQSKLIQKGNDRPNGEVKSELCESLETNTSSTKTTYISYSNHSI
`O=C(NC1CCCCC1)C(c1ccccc1)N(C(=O)c1cccs1)c1ccc2c(c1)OCO2` (stereo unspecified) gave a z-score of 0.0371.

Compound `CC(C)COC(=O)/C(C#N)=C/c1c[nH]c2ccccc12` returned a z-score of -1.39. `COc1cccc(N2CC(C(=O)Nc3c(C)cccc3C)CC2=O)c1` (stereo unspecified) returned a z-score of 0.534. The figure for `O=C(NCC(c1cccs1)N1CCOCC1)c1cccc([N+](=O)[O-])c1` (stereo unspecified) is -0.213; for `COc1ccc(-c2csc3nc(C)n(-n4cccc4)c(=O)c23)cc1OC` it is 0.0148. Then `Cc1ccc2c(c1)c1nnc(SCC(=O)N3CCN(c4ccc(F)cc4)CC3)nc1n2CC(=O)O`, with 0.0915. For `COC(=O)c1ccc(C2C(C(=O)c3cc4ccccc4o3)=C(O)C(=O)N2CCCN(C)C)cc1` (stereo unspecified), the z-score was -1.1.

Compound `CN(c1ccc(F)cc1)S(=O)(=O)c1ccc(Cl)c(C(=O)Nc2ccc3c(c2)CCC3)c1` had a z-score of -0.177.

`O=C(O)c1ccc(N2CCCCCC2)c(N2C(=O)c3ccccc3C2=O)c1` yielded a z-score of -0.96. Compound `CC(C)(C)CNC(CO)C12CC3CC(CC(C3)C1)C2` (stereo unspecified) registered a z-score of 0.704. The figure for `Cc1cccc(N2CCN(C(=O)COc3cc(=O)n(C)c4ccccc34)CC2)c1C` is 0.279.

`CCC(C)NCc1ccc(C(=O)OC)o1` (stereo unspecified) displayed a z-score of 0.164. The figure for `COc1ccc(-c2nc3cc(NC(=O)Cc4ccc(OC)c(OC)c4)ccc3o2)cc1` is 1.14; for `Cc1cccc(C(=O)N2CCN(c3ccc([N+](=O)[O-])c(N4CCOCC4)c3)CC2)c1` it is -0.208; for `CC(=O)Nc1ccc(OC(=O)c2cccs2)cc1` it is -0.00659. The figure for `O=C1CCCN1CCCNS(=O)(=O)c1ccc(Cl)c(C(=O)N2CCOCC2)c1` is 0.0385; for `O=C(COc1ccc(/C=N/NS(=O)(=O)c2ccccc2)cc1)Nc1ccc(F)cc1` it is -0.259.

`CC1CCN(S(=O)(=O)c2ccc(C(=O)Nc3sccc3C(N)=O)cc2)CC1`: the z-score worked out at 0.515. The figure for `COc1ccc(-c2cc(=O)oc3cc4occ(C)c4cc23)cc1` is -0.189.

Compound `Cc1ccc(C)c(NC(=O)C(OC(=O)c2ccc(C)s2)c2ccccc2)c1` (stereo unspecified) showed a z-score of -0.248. `CN(c1ncc(C(F)(F)F)cc1Cl)n1cc(C(=O)O)c2ccccc2c1=O`: the z-score is -0.0284. Then `CCN1C(=O)C2(Nc3ccccc3-c3nc4ccccc4n32)c2cc(OC)ccc21` (stereo unspecified), with -0.79. Take `COC(=O)Cn1ncc2c(C)n(Cc3ccccc3)c(C)c2c1=O`: the z-score is -0.229. Then `COc1ccc(Cl)cc1NC(=O)CN(C)C(=O)CNC(=O)C12CC3CC(CC(C3)C1)C2`, with -0.756; and `Cn1c(=O)c2[nH]c(NCCCN3CCOCC3)nc2n(C)c1=O`, with 0.667.

In turn, `Cn1c(CN2CCN(CC#N)CC2)c(C#N)c2ccccc21` had a z-score of -0.271. The compound `O=C(NCc1ccco1)c1ccc(Cn2c(=O)c3sccc3n(Cc3ccc(F)cc3)c2=O)cc1` had a z-score of -0.219. As to `CCOC(=O)/C(C(=O)Nc1ccccc1Cl)=C1/NC(C)(C)Cc2ccccc21`, the z-score is -0.489.

`CCOC(=O)/C(N=Nc1sc(C(=O)OC)c(C)c1C(=O)OCC)=C(\O)CCl` came in with a z-score of -0.104.

With `c1ccc(-c2cc3c(nn2)CCc2nonc2-3)cc1`, the z-score amounted to 0.531. `CC(=O)c1c(C)nc(-c2ccc(Cl)cc2)nc1N=CN(C)C` had a z-score of -0.179. Then `CC(Oc1ccc(Cl)cc1)C(=O)NNC(=S)NC(=O)c1ccco1` (stereo unspecified), with active: 5.62. Then `COc1ccc(N2CCN(C3CC(=O)N(C)C3=O)CC2)cc1` (stereo unspecified), with 0.537. The figure for `Cc1ccccc1OCc1nnc(SCC(=O)Nc2ccc3c(c2)oc2ccccc23)n1C` is -0.041; for `CCOc1cccc2sc(NC(=O)c3ccc(Br)s3)nc12` it is -0.429; for `COCCCNC(=O)Cn1cc(C(C)=O)c2ccccc21` it is 0.399. In the case of `COc1cc2ccccc2c2c1CCCC2=O`, the z-score is -0.304. Then `Nc1cc(N)nc(SCC(=O)Nc2ccccc2)n1`, with -0.306. The figure for `Cc1cc(C)c(C)c(OCCCn2ccnc2)c1` is -0.369; for `CCOc1c2ccc(C(=O)NCc3ccc4c(c3)OCO4)cc2nn1C` it is -0.106; for `CCCN(Cc1cc2cccc(C)c2[nH]c1=O)C(=O)c1cccc(OC)c1` it is -0.328. The figure for `COc1ccc(Nc2ccc(N3C(=O)CCCC3=O)cc2[N+](=O)[O-])cc1OC` is -0.055. In turn, `CCOC(=O)c1c(C)n(CC(O)c2ccccc2)c2ccc(O)cc12` (stereo unspecified) came in with a z-score of -0.41.

`CCC(Sc1nnnn1-c1ccccc1)C(=O)Nc1nc2ccccc2s1` (stereo unspecified) registered a z-score of 1.04. Then `COc1ccc2c(=O)c(-c3ccccc3)c(C)oc2c1`, with -0.496; and `Cc1ccc(-n2ncc3c(N4CCC(C(N)=O)CC4)ncnc32)c(C)c1`, with 0.838.

`COc1ccc(/C=N/NC(=O)c2ccccc2)cc1CN1CCN(c2ccc(F)cc2)CC1` had a z-score of -0.0421. Then `Cc1ncc(CC(=O)n2cc(C(=O)c3cc(F)ccc3O)cn2)s1`, with -1.11; and `CCCC(=O)C1=C(O)C(C(=O)OC)C(C)(C)CC1=Nc1cccc2ccccc12` (stereo unspecified), with -1.47; and `COc1ccc(NC(=O)[C@H](CCS(C)(=O)=O)N2Cc3ccccc3C2=O)c(OC)c1`, with -0.315.

`O=C(NNS(=O)(=O)c1ccccc1)c1cnn(-c2ccccc2)c1-n1cccc1` registered a z-score of -0.00899.

Compound `O=C(OCC(=O)N1CCC(Cc2ccccc2)CC1)c1ccc[nH]c1=O` gave a z-score of 1.15. The figure for `CC(C)n1c2ccccc2c2cc([N+](=O)[O-])ccc21` is -0.11; for `O=C(Nc1cnn(C23CC4CC(CC(C4)C2)C3)c1)c1cnn2cccnc12` it is 0.456. Then `CC1=CS(=O)(=O)CC1Sc1nc2ccccc2[nH]1` (stereo unspecified), with -0.0983; and `CC(C)C(=O)NC(=S)Nc1ccccn1`, with -0.0457. Then `CCOc1ccccc1NC(=O)Nc1cccc(C(C)=O)c1`, with active: 3.62; and `CCOc1ccc(N=C2NC(=O)S/C2=C\c2ccc(O)cc2)cc1`, with 0.108; and `Cn1cccc1/C=C(/C#N)C(N)=S`, with -0.0248. For the compound `O=C(O)/C=C/C(=O)Nc1ccccc1SC(F)(F)F`, the z-score was -0.384. `CC#CCNCc1ccccc1` displayed a z-score of 0.0417. Then `O=C(c1cccc(N2CCCC2=O)c1)N1CCN(c2ccccc2)CC1`, with 0.821. Then `COc1ccccc1CC(=O)NCCc1ccc(S(N)(=O)=O)cc1`, with 0.117; and `O=c1c2ccccc2nc2n1CCC2`, with -0.637.

As for `O=C(CSCc1ccc(F)cc1)NC1CCCC1`, the z-score was -1.01.

`CC1(C)Cc2c(c(-c3ccccc3Cl)[nH]c(=O)c2C#N)CO1` displayed a z-score of -0.577. The figure for `COc1ccccc1Nc1nc(N)nc(CN2CCOCC2)n1` is -0.181; for `O=C(N/N=C/c1cccc(OC(=O)c2ccc3c(c2)OCO3)c1)c1cncc(Br)c1` it is -0.144. Then `CN1CCN(c2nc(-c3cc4ccccc4o3)cs2)CC1`, with 0.0553; and `O=C(N1CCOCC1)n1cnc2ccccc21`, with 0.157.

`Cc1sc2nc(SCC(=O)N3CCCCC3)[nH]c(=O)c2c1C` gave a z-score of 0.0537.

Values taken from PubChem BioAssay AID488969 (Vanderbilt High Throughput Screening Facility, 2010).
